The values below come from PMC4346921, “Identification of the Specific Interactors of the Human Lariat RNA Debranching Enzyme 1 Protein” (International Journal of Molecular Sciences, 2015).

These are yes or no findings as the source states them, for the method shown. In cells and extracts the contact can be indirect. Some binding calls cover weakened binding; strength is not graded here. Where a sequence is shown, tags or fusion partners need not be part of it.

One test has as its target T1, GST-hDbr1 (human, UniProt Q9UK59-1 1-544).
T1 construct: human Dbr1, cDNA NM_016216 inserted into BamHI and XhoI sites of GEX-6P-1; also called GST-hDbr1 protein; recombinant Dbr1 protein fused to GST; source: E. coli BL21 (DE3) CodonPlus-RIPL, purified (Glutathione Sepharose)
T1 sequence (looked up): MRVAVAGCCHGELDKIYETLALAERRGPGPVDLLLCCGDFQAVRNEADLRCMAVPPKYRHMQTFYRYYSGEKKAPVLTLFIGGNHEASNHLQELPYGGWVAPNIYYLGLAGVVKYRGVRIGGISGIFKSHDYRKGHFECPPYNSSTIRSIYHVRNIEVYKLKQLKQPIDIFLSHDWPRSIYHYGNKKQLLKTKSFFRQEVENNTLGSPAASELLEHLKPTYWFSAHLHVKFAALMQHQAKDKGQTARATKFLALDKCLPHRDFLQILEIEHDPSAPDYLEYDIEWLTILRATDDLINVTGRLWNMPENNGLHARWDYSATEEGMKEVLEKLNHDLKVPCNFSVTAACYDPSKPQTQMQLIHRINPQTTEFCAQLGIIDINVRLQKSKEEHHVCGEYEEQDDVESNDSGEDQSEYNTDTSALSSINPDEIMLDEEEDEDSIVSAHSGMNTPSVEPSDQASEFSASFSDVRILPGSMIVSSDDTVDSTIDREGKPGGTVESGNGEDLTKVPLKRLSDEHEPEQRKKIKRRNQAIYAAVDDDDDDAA
Put plainly: pull-down; 5 μg GST or GST fusion protein immobilised on glutathione beads; [35S]methionine-labelled in vitro translated protein added in 50 mM Tris-HCl pH 7.4, 200 mM NaCl, 2 mM EDTA, 0.1% NP-40, 4 °C, 1 h; five washes; SDS-PAGE and fluorography; only the target purified.

The target in test [1] is T2, GST-yeast Dbr1 (GST-yDbr1) (yeast) (UniProt P24309).
T2 sequence: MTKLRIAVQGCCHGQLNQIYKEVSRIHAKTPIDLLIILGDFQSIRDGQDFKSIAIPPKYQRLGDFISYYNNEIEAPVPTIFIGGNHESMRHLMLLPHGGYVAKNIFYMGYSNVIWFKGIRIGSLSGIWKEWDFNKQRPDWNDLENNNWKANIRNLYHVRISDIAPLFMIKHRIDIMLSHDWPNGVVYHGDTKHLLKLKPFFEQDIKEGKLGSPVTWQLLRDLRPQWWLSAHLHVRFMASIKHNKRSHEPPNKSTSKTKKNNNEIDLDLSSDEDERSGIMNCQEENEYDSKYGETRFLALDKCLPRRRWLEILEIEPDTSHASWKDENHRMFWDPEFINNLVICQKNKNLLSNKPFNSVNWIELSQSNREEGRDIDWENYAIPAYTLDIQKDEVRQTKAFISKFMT
The description is as above.

The next test addresses T3, T7-His-hDrn1 (human) (UniProt Q69YN2).
T3 sequence: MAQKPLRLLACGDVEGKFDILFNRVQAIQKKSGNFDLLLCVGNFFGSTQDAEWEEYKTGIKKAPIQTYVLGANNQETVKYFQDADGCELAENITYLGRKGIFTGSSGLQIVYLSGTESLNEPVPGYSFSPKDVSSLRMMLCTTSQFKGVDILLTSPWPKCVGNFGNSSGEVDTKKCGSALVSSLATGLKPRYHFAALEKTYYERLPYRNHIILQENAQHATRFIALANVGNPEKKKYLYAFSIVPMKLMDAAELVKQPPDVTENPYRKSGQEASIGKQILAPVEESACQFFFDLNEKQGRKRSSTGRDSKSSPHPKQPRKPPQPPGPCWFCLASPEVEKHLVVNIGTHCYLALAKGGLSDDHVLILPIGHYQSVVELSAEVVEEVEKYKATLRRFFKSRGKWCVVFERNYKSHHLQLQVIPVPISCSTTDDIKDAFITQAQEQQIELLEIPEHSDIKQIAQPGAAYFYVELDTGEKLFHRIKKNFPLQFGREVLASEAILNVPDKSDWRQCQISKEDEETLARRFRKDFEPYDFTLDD
Briefly: pull-down; 2 μg T7-His-hDrn1 immobilised by anti-T7 tag antibody on magnetic protein A beads; [35S]methionine-labelled in vitro translated myc-PK fusions added in 50 mM Tris-HCl pH 7.4, 200 mM NaCl, 2 mM EDTA, 0.1% NP-40, 4 °C, 1 h; five washes; SDS-PAGE and fluorography; only the target purified.

B1: myc-tagged hDrn1, in vitro translated (protein, UniProt Q69YN2-1 1-538)
chain: MAQKPLRLLACGDVEGKFDILFNRVQAIQKKSGNFDLLLCVGNFFGSTQDAEWEEYKTGIKKAPIQTYVLGANNQETVKYFQDADGCELAENITYLGRKGIFTGSSGLQIVYLSGTESLNEPVPGYSFSPKDVSSLRMMLCTTSQFKGVDILLTSPWPKCVGNFGNSSGEVDTKKCGSALVSSLATGLKPRYHFAALEKTYYERLPYRNHIILQENAQHATRFIALANVGNPEKKKYLYAFSIVPMKLMDAAELVKQPPDVTENPYRKSGQEASIGKQILAPVEESACQFFFDLNEKQGRKRSSTGRDSKSSPHPKQPRKPPQPPGPCWFCLASPEVEKHLVVNIGTHCYLALAKGGLSDDHVLILPIGHYQSVVELSAEVVEEVEKYKATLRRFFKSRGKWCVVFERNYKSHHLQLQVIPVPISCSTTDDIKDAFITQAQEQQIELLEIPEHSDIKQIAQPGAAYFYVELDTGEKLFHRIKKNFPLQFGREVLASEAILNVPDKSDWRQCQISKEDEETLARRFRKDFEPYDFTLDD
As to B1, the binding entry in the test with GST-hDbr1 is “binds”; in test [1] it was “no binding”.

B2: myc-PK hDrn1 (aa. 1–538) (protein, UniProt Q69YN2-1 1-538)
chain: MAQKPLRLLACGDVEGKFDILFNRVQAIQKKSGNFDLLLCVGNFFGSTQDAEWEEYKTGIKKAPIQTYVLGANNQETVKYFQDADGCELAENITYLGRKGIFTGSSGLQIVYLSGTESLNEPVPGYSFSPKDVSSLRMMLCTTSQFKGVDILLTSPWPKCVGNFGNSSGEVDTKKCGSALVSSLATGLKPRYHFAALEKTYYERLPYRNHIILQENAQHATRFIALANVGNPEKKKYLYAFSIVPMKLMDAAELVKQPPDVTENPYRKSGQEASIGKQILAPVEESACQFFFDLNEKQGRKRSSTGRDSKSSPHPKQPRKPPQPPGPCWFCLASPEVEKHLVVNIGTHCYLALAKGGLSDDHVLILPIGHYQSVVELSAEVVEEVEKYKATLRRFFKSRGKWCVVFERNYKSHHLQLQVIPVPISCSTTDDIKDAFITQAQEQQIELLEIPEHSDIKQIAQPGAAYFYVELDTGEKLFHRIKKNFPLQFGREVLASEAILNVPDKSDWRQCQISKEDEETLARRFRKDFEPYDFTLDD
On to B2, for which the binding result with GST-hDbr1 is listed as “binds”.

B3: myc-PK hDbr1 (aa. 1–544) (enzyme, UniProt Q9UK59-1 1-544)
chain: MRVAVAGCCHGELDKIYETLALAERRGPGPVDLLLCCGDFQAVRNEADLRCMAVPPKYRHMQTFYRYYSGEKKAPVLTLFIGGNHEASNHLQELPYGGWVAPNIYYLGLAGVVKYRGVRIGGISGIFKSHDYRKGHFECPPYNSSTIRSIYHVRNIEVYKLKQLKQPIDIFLSHDWPRSIYHYGNKKQLLKTKSFFRQEVENNTLGSPAASELLEHLKPTYWFSAHLHVKFAALMQHQAKDKGQTARATKFLALDKCLPHRDFLQILEIEHDPSAPDYLEYDIEWLTILRATDDLINVTGRLWNMPENNGLHARWDYSATEEGMKEVLEKLNHDLKVPCNFSVTAACYDPSKPQTQMQLIHRINPQTTEFCAQLGIIDINVRLQKSKEEHHVCGEYEEQDDVESNDSGEDQSEYNTDTSALSSINPDEIMLDEEEDEDSIVSAHSGMNTPSVEPSDQASEFSASFSDVRILPGSMIVSSDDTVDSTIDREGKPGGTVESGNGEDLTKVPLKRLSDEHEPEQRKKIKRRNQAIYAAVDDDDDDAA
As to B3, the binding result in the test with T7-His-hDrn1 (human) is “binds”.

B4: myc-PK hDbr1 (aa. 1–240) (domain or fragment, UniProt Q9UK59-1 1-240)
chain: MRVAVAGCCHGELDKIYETLALAERRGPGPVDLLLCCGDFQAVRNEADLRCMAVPPKYRHMQTFYRYYSGEKKAPVLTLFIGGNHEASNHLQELPYGGWVAPNIYYLGLAGVVKYRGVRIGGISGIFKSHDYRKGHFECPPYNSSTIRSIYHVRNIEVYKLKQLKQPIDIFLSHDWPRSIYHYGNKKQLLKTKSFFRQEVENNTLGSPAASELLEHLKPTYWFSAHLHVKFAALMQHQAK
With B4, the binding entry with T7-His-hDrn1 (human) was “no binding”.

B5: myc-PK hDbr1 (aa. 241–544) (domain or fragment, UniProt Q9UK59-1 241-544)
chain: DKGQTARATKFLALDKCLPHRDFLQILEIEHDPSAPDYLEYDIEWLTILRATDDLINVTGRLWNMPENNGLHARWDYSATEEGMKEVLEKLNHDLKVPCNFSVTAACYDPSKPQTQMQLIHRINPQTTEFCAQLGIIDINVRLQKSKEEHHVCGEYEEQDDVESNDSGEDQSEYNTDTSALSSINPDEIMLDEEEDEDSIVSAHSGMNTPSVEPSDQASEFSASFSDVRILPGSMIVSSDDTVDSTIDREGKPGGTVESGNGEDLTKVPLKRLSDEHEPEQRKKIKRRNQAIYAAVDDDDDDAA
For B5, in the test with T7-His-hDrn1 (human), the binding entry is on record as “binds”.

B6: Flag-tagged Xab2, in vitro translated (protein, UniProt Q9HCS7 1-855)
chain: MVVMARLSRPERPDLVFEEEDLPYEEEIMRNQFSVKCWLRYIEFKQGAPKPRLNQLYERALKLLPCSYKLWYRYLKARRAQVKHRCVTDPAYEDVNNCHERAFVFMHKMPRLWLDYCQFLMDQGRVTHTRRTFDRALRALPITQHSRIWPLYLRFLRSHPLPETAVRGYRRFLKLSPESAEEYIEYLKSSDRLDEAAQRLATVVNDERFVSKAGKSNYQLWHELCDLISQNPDKVQSLNVDAIIRGGLTRFTDQLGKLWCSLADYYIRSGHFEKARDVYEEAIRTVMTVRDFTQVFDSYAQFEESMIAAKMETASELGREEEDDVDLELRLARFEQLISRRPLLLNSVLLRQNPHHVHEWHKRVALHQGRPREIINTYTEAVQTVDPFKATGKPHTLWVAFAKFYEDNGQLDDARVILEKATKVNFKQVDDLASVWCQCGELELRHENYDEALRLLRKATALPARRAEYFDGSEPVQNRVYKSLKVWSMLADLEESLGTFQSTKAVYDRILDLRIATPQIVINYAMFLEEHKYFEESFKAYERGISLFKWPNVSDIWSTYLTKFIARYGGRKLERARDLFEQALDGCPPKYAKTLYLLYAQLEEEWGLARHAMAVYERATRAVEPAQQYDMFNIYIKRAAEIYGVTHTRGIYQKAIEVLSDEHAREMCLRFADMECKLGEIDRARAIYSFCSQICDPRTTGAFWQTWKDFEVRHGNEDTIKEMLRIRRSVQATYNTQVNFMASQMLKVSGSATGTVSDLAPGQSGMDDMKLLEQRAEQLAAEAERDQPLRAQSKILFVRSDASREELAELAQQVNPEEIQLGEDEDEDEMDLEPNEVRLEQQSVPAAVFGSLKED
Take B6: the binding entry with GST-hDbr1 was “binds”.

B7: myc-tagged yDrn1, in vitro translated (protein, UniProt P53255 1-507)
chain: MTNAKILVAHISESDADEAIRKIKKVNEKSGPFDLIIIFSNSYDENFELNTDGLPQLILLSCDKANNSKSKKINENVTLLHNMGTYKLANGITLSYFIYPDDTLQGEKKSILDEFGKSEDQVDILLTKEWGLSISERCGRLSGSEVVDELAKKLQARYHFAFSDEINFYELEPFQWERERLSRFLNIPKYGSGKKWAYAFNMPIGDNELKDEPEPPNLIANPYNSVVTNSNKRPLETETENSFDGDKQVLANREKNENKKIRTILPSSCHFCFSNPNLEDHMIISIGKLVYLTTAKGPLSVPKGDMDISGHCLIIPIEHIPKLDPSKNAELTQSILAYEASLVKMNYIKFDMCTIVFEIQSERSIHFHKQVIPVPKYLVLKFCSALDRQVHFNNEKFTRNAKLEFQCYDSHSSKQYVDVINNQSNNYLQFTVYETPEADPKIYLATFNASETIDLQFGRRVLAFLLNLPRRVKWNSSTCLQTKQQETIEAEKFQKAYRTYDISLTEN
As for B7, the binding result with GST-hDbr1 was “no binding”; in test [1] it was “binds”.

B8: myc-PK hDrn1 (aa. 1–268) (domain or fragment, UniProt Q69YN2-1 1-268)
chain: MAQKPLRLLACGDVEGKFDILFNRVQAIQKKSGNFDLLLCVGNFFGSTQDAEWEEYKTGIKKAPIQTYVLGANNQETVKYFQDADGCELAENITYLGRKGIFTGSSGLQIVYLSGTESLNEPVPGYSFSPKDVSSLRMMLCTTSQFKGVDILLTSPWPKCVGNFGNSSGEVDTKKCGSALVSSLATGLKPRYHFAALEKTYYERLPYRNHIILQENAQHATRFIALANVGNPEKKKYLYAFSIVPMKLMDAAELVKQPPDVTENPYRK
As to B8, in the test with GST-hDbr1, the binding result was “binds”.
